# Data from PubChem BioAssay AID2675 (National Center for Advancing Translational Sciences (NCATS), 2010).
# Out of some 280,000 compounds screened, about 100 (0.036%) were called active. Inconclusive results, whose numbers are uncertain, are shown with a selection of clear calls. Calls follow the shape of the dose curve; as a rule, active = well fitted inhibition curve with a large enough effect in the signal ratio, with a control signal flat (not every such curve was filed as active); inconclusive = small, poorly fitted or top-dose-only effect, or effect the other way, or a change in a side signal; inactive = no such curve, though single readings can be large or run the other way; the % refers to the signal ratio. A potency beside an inconclusive call is a rough fit, not a confirmed value. A note “side channel” means that the fit belongs to a control or component signal, not to the main read-out.
# Target: Muscleblind-like protein 1 (Homo sapiens) (UniProt Q9NR56)
# Assay: qHTS Assay for Inhibitors of MBNL1-poly(CUG) RNA binding
# Settings: TR-FRET MBNL1-His/biotin-(CUG)12 binding, 665/545 ratio; series mostly up to 57.5 µM
# How it was run: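 TR-FRET between His-tagged MBNL1 and biotin-(CUG)12 RNA, detected with Tb anti-His antibody (0.055 ng/ul) and streptavidin-XL665 (5 nM), 60 min at room temperature. Compounds titrated 92 nM to 58 uM; 665/545 nm ratio normalized to buffer and complex controls.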
# Potency is read from the fitted curve at half-maximal effect; tags tell the direction and shape of the fitted curve or compound fluorescence and quenching.
# Sequence of UniProt Q9NR56 (Q9NR56 whole entry, looked up): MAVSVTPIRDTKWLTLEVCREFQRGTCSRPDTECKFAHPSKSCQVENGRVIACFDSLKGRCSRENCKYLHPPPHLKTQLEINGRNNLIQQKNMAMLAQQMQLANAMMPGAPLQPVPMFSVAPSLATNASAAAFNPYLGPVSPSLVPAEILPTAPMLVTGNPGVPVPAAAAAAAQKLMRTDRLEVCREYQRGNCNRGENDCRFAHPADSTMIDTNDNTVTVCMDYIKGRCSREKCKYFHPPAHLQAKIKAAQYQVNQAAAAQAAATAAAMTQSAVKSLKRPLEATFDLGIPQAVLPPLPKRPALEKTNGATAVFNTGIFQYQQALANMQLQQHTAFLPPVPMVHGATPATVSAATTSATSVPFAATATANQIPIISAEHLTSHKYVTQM
row,SMILES,Potency
1,O=C(Nc1ccc([N+](=O)[O-])cc1)c1cccc(S(=O)(=O)Nc2cccnc2)c1,"inconclusive: 12.6 µM [quencher, side channel, partial curve]"
2,COc1cc(NC(=O)CCN2CCN(CCO)CC2)cc(OC)c1,inactive
3,N#Cc1nc(-c2cccc3ccccc23)oc1NCCN1CCCCC1,"inconclusive: 31.6 µM [quencher, side channel, single point]"
4,COCCn1cnnc1SCC(=O)Nc1cc(OC)c([N+](=O)[O-])cc1C,"inconclusive: 14.1 µM [quencher, side channel, partial curve]"
5,CCOC(=O)C1(Cc2cccc(Cl)c2)CCCN(C(=O)C(C)(C)C)C1 (centres undefined),"inconclusive: 2.82 µM [quencher, side channel, full curve]"
6,CC1CN(C2=N/C(=C/c3ccc4c(c3)OCO4)C(=O)N2)CC(C)O1 (centres undefined),"inconclusive: 8.91 µM [quencher, side channel, partial curve, poor fit]"
7,O=C(Cc1ccccc1)Nc1ccc(-c2nnc(-c3ccco3)o2)cc1,"inconclusive: 39.8 µM [quencher, side channel, single point]"
8,O=C1CSC(c2cn(-c3ccccc3)nc2-c2ccccc2)N1Cc1ccco1 (centres undefined),"inconclusive: 0.1 µM [fluorescent, side channel, full curve]"
9,Cc1ccc(-c2nnc(N3CCC(C)CC3)c3ccccc23)cc1C,inactive
10,Cc1cc(C(=O)Oc2cccnc2)ccc1[N+](=O)[O-],"inconclusive: 15.8 µM [quencher, side channel, partial curve, poor fit]"
11,O=C(c1ccc2c3n(nc2c1)-c1ccc(Cl)cc1CO3)N1CCCCC1,"inconclusive: 17.8 µM [quencher, side channel, partial curve]"
12,CCOc1cccc(=O)c2c(C)n(Cc3ccco3)c(C)c12,"inconclusive: 14.1 µM [quencher, side channel, partial curve]"
13,CC(=O)Nc1ccc([N+](=O)[O-])cn1,"inconclusive: 20 µM [quencher, side channel, partial curve]"
14,CC(C(=O)O/N=C(\N)c1cccnc1)c1ccc([N+](=O)[O-])cc1 (centres undefined),"inconclusive: 14.1 µM [quencher, side channel, partial curve]"
15,COc1ccc(N2C(=O)c3ccc(C(=O)Nc4ccccc4O)cc3C2=O)cc1,"inconclusive: 3.16 µM [quencher, side channel, partial curve]"
16,CC1CCN(c2nc3ccc(C(=O)N4CCN(Cc5ccc6c(c5)OCO6)CC4)cc3s2)CC1,"inconclusive: 100 µM [inhibitor, single point]"
17,Cc1cc(N)n(-c2ccc([N+](=O)[O-])cc2)n1,"inconclusive: 14.1 µM [quencher, partial curve]"
18,COc1ccc(/C=C2\SC(=O)N(CCC(=O)N(C)C3CCS(=O)(=O)C3)C2=O)cc1 (centres undefined),"inconclusive: 2.51 µM [quencher, side channel, partial curve, poor fit]"
19,Cc1ccc(NC(=O)c2ccc(NCCc3ccccc3)c([N+](=O)[O-])c2)cc1F,inactive
20,COC(=O)N1C(=O)[C@](c2ccccc2)(C2CCCCC2)N1C(=O)OC,inactive

row,SMILES,Potency
1,O=C(N/N=C/c1cc(Br)c(Br)o1)c1cccnc1,"inconclusive: 17.8 µM [quencher, side channel, partial curve]"
2,NC(=O)c1nsc(C(=O)N(Cc2cccnc2)C(C(=O)NCc2ccc(F)cc2)c2ccc(O)cc2)c1N (centres undefined),"inconclusive: 28.2 µM [quencher, side channel, partial curve]"
3,COc1ccc(Nc2ccnc3ccccc23)cc1,"inconclusive: 28.2 µM [quencher, side channel, partial curve]"
4,Nc1nonc1C(=O)N/N=C/c1ccc(-c2cccc([N+](=O)[O-])c2)o1,"inconclusive: 3.16 µM [quencher, side channel, full curve]"
5,Oc1ccccc1CNc1ccc(Br)cn1,inactive
6,COc1ccc(O)c(/C=N/NC(=O)CN2CCS(=O)(=O)CC2)c1,inactive
7,Cc1ccc2cc3cc(C(=O)NCCCN4CC(C)CC(C)C4)oc3nc2c1 (centres undefined),"inconclusive: 3.55 µM [quencher, side channel, full curve]"
8,O=C(c1cc(-c2cccc(O)c2)on1)N1CCCCC1,"inconclusive: 0.112 µM [quencher, side channel, full curve, poor fit]"
9,Cc1ccccc1NCC(=O)N/N=C\c1ccc([N+](=O)[O-])s1,"inconclusive: 7.08 µM [quencher, side channel, partial curve]"
10,COc1ccc2[nH]c(=O)c(CN(Cc3ccc(C)cc3)Cc3nnnn3CC3CCCO3)cc2c1 (centres undefined),"inconclusive: 28.2 µM [quencher, side channel, partial curve]"
11,CCc1nnc(NC(=O)CSc2nnc(Cc3ccccc3)n2-c2ccc(OC)cc2)s1,"inconclusive: 63.1 µM [inhibitor, single point]"
12,CCN(CC)c1ccc(/C=N/NC(=O)OC(C)(C)C)cc1,"inconclusive: 44.7 µM [quencher, side channel, single point]"
13,COc1cc(SC#N)ccc1N=Cc1c(C)[nH]n(-c2ccc(C)cc2C)c1=O,"inconclusive: 39.8 µM [quencher, single point]"
14,Cn1ncc2c(Nc3cccc([N+](=O)[O-])c3)ncnc21,"inconclusive: 10 µM [quencher, side channel, partial curve]"
15,CC(=O)c1ccc(OCCCN2CCCCC2)cc1,inactive
16,O=C(Nc1nccs1)c1ccccc1[N+](=O)[O-],"inconclusive: 25.1 µM [quencher, side channel, partial curve]"
17,COc1ccc(NC(=O)CCCNC(=O)Cn2cnc3sc4c(c3c2=O)CCCC4)c(OC)c1,"inconclusive: 35.5 µM [fluorescent, side channel, single point]"
18,O=C(Nc1cnc2ccccc2c1)c1ccncc1,"inconclusive: 28.2 µM [quencher, side channel, partial curve]"
19,O=c1c(O)c(-c2ccc(O)cc2O)oc2cc(O)cc(O)c12,"inconclusive: 22.4 µM [quencher, side channel, partial curve]"
20,CCC(C)NC(=O)c1cc2c(=O)n3ccccc3nc2s1 (centres undefined),"inconclusive: 11.2 µM [quencher, side channel, partial curve]"

row,SMILES,Potency
1,CC(=O)N(c1ccccc1)c1ccc([N+](=O)[O-])cc1[N+](=O)[O-],"inconclusive: 20 µM [quencher, side channel, partial curve]"
2,Cc1cc(C(F)(F)F)c2c(=O)[nH]c(=O)n(Cc3ccccc3)c2n1,inactive
3,COc1ccc(Br)cc1CN(C)CC(=O)Nc1c(Cl)cccc1Cl,"inconclusive: 5.01 µM [fluorescent, side channel, partial curve, poor fit]"
4,CC(C)CN1C(=O)c2ccc(C(=O)Nc3ccccn3)cc2C1=O,"inconclusive: 7.94 µM [quencher, side channel, partial curve]"
5,Cn1nnc(NC(=O)c2cccc([N+](=O)[O-])c2)n1,"inconclusive: 15.8 µM [quencher, side channel, partial curve]"
6,Cc1ccc(N=Nc2c(N)nn(-c3ccccc3)c2N)cc1,"inconclusive: 3.16 µM [quencher, side channel, full curve]"
7,CN(CCOc1ccc(Cl)cc1)c1ccc(S(=O)(=O)N2CCCCC2)cn1,"inconclusive: 39.8 µM [fluorescent, single point]"
8,O=C(CN1CCC(n2nnc3cc(F)ccc32)CC1)Nc1ccc2c(c1)CCC2,"inconclusive: 3.55 µM [quencher, side channel, single point]"
9,COc1ccc(NC(=S)N(CCCN2CCOCC2)Cc2cn(C)c3ccccc23)cc1,inactive
10,CN(C)CCNC(=O)C(=O)NCC1OCCN1S(=O)(=O)c1ccc([N+](=O)[O-])cc1 (centres undefined),"inconclusive: 11.2 µM [quencher, side channel, partial curve]"
11,O=C1OC(Nc2ccc3ncccc3c2)c2ccccc21 (centres undefined),"inconclusive: 31.6 µM [quencher, side channel, partial curve]"
12,N#C/C(=C(/O)CSc1ccccn1)c1nc2ccccc2s1,inactive
13,O=C(CCC(=O)OCc1ccc([N+](=O)[O-])cc1Cl)Nc1ccccc1,"inconclusive: 14.1 µM [quencher, side channel, partial curve]"
14,COc1ccc(/C=C(/NC(=O)c2ccc([N+](=O)[O-])cc2)C(=O)NCCCN(C)C)cc1,"inconclusive: 14.1 µM [quencher, partial curve]"
15,N#CC(CC(=O)c1ccc(F)cc1)c1ccc2c(c1)OCO2 (centres undefined),inactive
16,CN(CC(=O)NCCc1ccccc1)S(=O)(=O)c1cccs1,inactive
17,CC(C)CCn1cnc2c(sc3nc4c(cc32)CSC(C)(C)C4)c1=O,"inconclusive: 5.01 µM [fluorescent, side channel, partial curve]"
18,COc1ccc(C2c3ccc4ccccc4c3Oc3ncn(CCN4CCOCC4)c(=N)c32)cc1OC (centres undefined),"inconclusive: 79.4 µM [inhibitor, single point]"
19,CC(=O)C1=C(c2ccccc2)OC(N)=C(C#N)C1c1ccc(O)cc1 (centres undefined),"inconclusive: 39.8 µM [quencher, side channel, single point]"
